The results in this text go back to PubChem BioAssay AID1963576 (National Center for Advancing Translational Sciences (NCATS), 2024).

Hit rate of the full screen: of about 46,000 compounds, about 60 (0.1%) were called active. Another 3% or so got no clear call; they are omitted. The call rests on the fitted dose curve; in most records, active means well fitted inhibition curve with a large enough effect; inconclusive means small, poorly fitted or top-dose-only effect; inactive means no such curve, though single readings can be large or run the other way. This is one part of the list.

The assay is described as follows: Primary qHTS assay for Inhibitors of ovarian cancer metastasis using an organotypic tumor microenvironment (TME) model. Further: nearly all actives have a fitted effect of over 65% in size.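 On activity change, negative = inhibition: plate controls were DMSO wells for no effect and tomatine positive control wells for full effect.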 As to conditions: SKOV3ip1-GFP adhesion/invasion on 3D omental model, fluorescence; series mostly up to 45.8 µM; activity change, negative = inhibition: at the top concentration. Put shortly:
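qHTS, 4-pt dose (0.36-46 umol/L); SKOV3ip1-GFP, 1,200 cells/well, no FBS; primary omental fibroblast/mesothelial co-culture 48 h pre-grown; 2 h RT + 16 h 37 C; PBS wash, 4% PFA; GFP count 488/509 nm.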
A general note: In qHTS, concentration-response curves come from the screen itself.
For the compound `Cc1cccc(N(CC(=O)NCCSc2ccc(Cl)cc2)S(C)(=O)=O)c1C`, the “activity change, negative = inhibition” value was inactive: -3.89%. Still for that read-out and setting: the same measure for `Cc1ccc(-n2ncc(C(=O)N3CCN(C(=O)c4ccco4)CC3)c2C2CCN(C(=O)OC(C)(C)C)CC2)cc1`: inactive: 22.3%; for `CCS(=O)(=O)c1ncc(Cl)c(C(=O)Nc2c(C(=O)c3ccc(C)cc3)oc3ccccc23)n1`: inactive: -9.28%. Still for that read-out and setting: for `COC(=O)c1nnn(-c2ccc(Cl)cc2)c1C(=O)OC` the value was inactive: 2.65%; for `C=C(C)Cn1c(SCC(=O)Nc2cccc(C)c2)nc2sc3c(c2c1=O)CCCC3`, inactive: 1.67%; for `CC(C)c1ccc(NC(=O)CCNS(=O)(=O)c2ccc3c(c2)oc(=O)n3C)cc1`, inactive: 0.245%. On the same count and under the same terms, the same measure for `O=C(CN1CCCN(Cc2cccc(F)c2)S1(=O)=O)Nc1ccc2c(c1)OCCO2`: inactive: 4.61%. Turning to `Cc1cccc(-c2nc(C)c(CCNC(=O)c3cccs3)s2)c1`, the “activity change, negative = inhibition” value is inactive: -26.9%. For the compound `O=C(NCC(c1cccnc1)N1CCc2ccccc2C1)C(=O)Nc1ccc(F)cc1F` (configuration not stated), the compound was classed as inactive. On the same count and under the same terms, for `Cc1ccc(NC(=O)C2CCN(C(=O)c3cnn(-c4ccccc4)c3-n3cccc3)CC2)cc1C` the value was “inactive”. For `O=C(c1ccc2c(c1)N(Cc1cccc(Cl)c1)C(=O)c1ccccc1S2(=O)=O)N1CCCCCC1`, the “activity change, negative = inhibition” value is inactive: 1.09%. On to `Cc1cccc(CCNC(=O)c2nn(C)c3c2CSc2ccccc2-3)c1`, for which the outcome was inactive. Regarding `O=C(CSc1oc(-c2ccc(F)cc2)nc1S(=O)(=O)c1ccc(Cl)cc1)c1ccccc1`, the “activity change, negative = inhibition” value was inactive: 3.88%. Take `COc1cccc(-c2cn3c(n2)sc2cc(C(=O)NCCC4=CCCCC4)ccc23)c1`: the “activity change, negative = inhibition” value was inactive: 1.58%. Still for that read-out and setting: for `NC(N)=NC(=O)c1nc(Cl)c(N)nc1N` the value was inactive: 8.53%; for `COc1ccc(N2CCN(C(CNC(=O)c3cccc(OC)c3)c3cccnc3)CC2)cc1` (configuration not stated), inactive: 4.17%. Consider `COc1ccc(-c2cc(C(F)(F)F)n3nc(C(=O)Nc4sc5c(c4C(=O)OC(C)C)CCCC5)cc3n2)cc1OC`, for which the “activity change, negative = inhibition” value was inactive: 9.39%.

For `CCc1ccc(CNc2ncnc3onc(-c4ccc(Cl)cc4)c23)cc1`, the result was inactive. On the same count and under the same terms, the same measure for `CCOc1ccc(CN(C(=O)c2cc(=O)c3cc(Cl)ccc3o2)C2CCS(=O)(=O)C2)cc1` (configuration not stated): “inactive”.

On to `CCCCNC(=O)CSC1=Nc2ccccc2C2=NC(CCC(=O)NCc3ccccc3OC)C(=O)N12` (configuration not stated), for which the “activity change, negative = inhibition” value was inactive: -12.1%. Consider `CCc1ccc(NC(=O)CSc2cn(CC(=O)N3CCOCC3)c3ccccc23)cc1`, for which the “activity change, negative = inhibition” value is inactive: -9.72%.

Consider `COc1ccc(NC(=O)Cn2c(=O)n(-c3ccc(C)c(C)c3)c(=O)c3c4c(sc32)CCCCC4)cc1Cl`, for which the compound was called inactive. Take `Cn1c(C(=O)N2CCCC(C(=O)N3CCN(c4ccccc4)CC3)C2)cc2sccc21` (configuration not stated): the “activity change, negative = inhibition” value is inactive: -3.56%. Still for that read-out and setting: for `CCN(CC)C(=O)C1CCN(c2cc(C)nc3c(-c4ccc(OC)c(OC)c4)c(C)nn23)CC1` the value was inactive: -4%. In the case of `Cc1ccc(/C=C/c2nc3ccccc3n2S(=O)(=O)c2cccc(Cl)c2)cc1`, the compound was classed as inactive. Regarding `COc1cc2c(cc1OC)n(CC(=O)Nc1ccccc1)c(=O)n1nc(-c3ccccc3)nc21`, the “activity change, negative = inhibition” value is inactive: -14.5%. The same measure, in the same setting: for `COc1ccccc1NC(=O)C1=C(C)Nc2c(C(=O)Nc3cccc(C)c3)cnn2C1c1ccccc1C` (configuration not stated) the value was inactive: 18.8%. `O=C(CCn1c(=O)c2cccn2c2cccnc21)NCc1ccc(Cl)cc1`: the compound was classed as inactive. Still for that read-out and setting: the same measure for `COC(=O)c1ccc(NC(=O)C(=O)NCCc2sc3nc(-c4ccc(OC)cc4)nn3c2C)cc1`: “inactive”. For `COc1ccc(CCNC(=O)c2cc(=O)c3c(C)cc(C)cc3o2)cc1OC`, the “activity change, negative = inhibition” value is inactive: -0.693%.

Take `O=c1oc2c(O)c(O)cc3c(=O)oc4c(O)c(O)cc1c4c23`: the “activity change, negative = inhibition” value was inactive: -2.79%. `CC(CC(=O)NCc1ccc(Cl)cc1Cl)CC1=NS(=O)(=O)c2ccccc2N1` (configuration not stated): the outcome was inactive. As for `Cc1nc2ccn(Cc3cccs3)c(=O)c2cc1C(=O)NCc1ccc(Cl)cc1`, the “activity change, negative = inhibition” value is inactive: -2.15%. Same read-out and setting: the same measure for `Cc1ccc(Nc2nc3c(S(=O)(=O)c4ccccc4)nnn3c3ccc(Cl)cc23)c(C)c1`: inactive: 0.634%; for `CCOC(=O)c1ccc(NC(=O)Cn2cc(C(=O)c3cccs3)c3ccccc32)cc1`: inactive: 1.42%. Turning to `Cc1cccc(OC(=O)c2nc(SCc3ccccc3F)ncc2Cl)c1`, the “activity change, negative = inhibition” value is inactive: -3.89%. On the same count and under the same terms, the same measure for `CC(=O)CC(c1ccccc1)c1c(O)c2ccccc2oc1=O` (configuration not stated): inactive: 30.9%. For `Oc1cccc(-c2nc(-c3cccs3)c(-c3cccs3)[nH]2)c1`, the compound was classed as inactive.

Take `O=C(NCC(c1ccc2c(c1)OCO2)N1CCOCC1)C(=O)Nc1ccc(Cl)cc1` (configuration not stated): the “activity change, negative = inhibition” value is inactive: 2.75%. For the compound `Cc1ccccc1OCCSc1nnc(-c2ccc([N+](=O)[O-])cc2)o1`, the compound was classed as inactive.

With `CCCN(CCC)CCCNC(=O)c1sc2nc3n(c(=O)c2c1C)CCC3`, the “activity change, negative = inhibition” value was inactive: -0.214%. For `CCC1CCCCN1CCCNC(=O)c1sc2nc(C)cc(C)c2c1-n1cccc1` (configuration not stated), the “activity change, negative = inhibition” value was inactive: -3.09%. In the case of `Cc1ccc(NS(=O)(=O)c2ccc(-c3cc(C)no3)cc2)c(C)c1`, the compound was classed as inactive. Regarding `CCc1cc2c(cc3c(=O)n(CC(=O)NC(C)C)nc(CC)n32)s1`, the “activity change, negative = inhibition” value is inactive: 9.77%.

`O=C(c1ccc2c(c1)N(Cc1cccc(Cl)c1)C(=O)c1ccccc1S2(=O)=O)N1CCN(Cc2ccccc2)CC1`: the outcome was inactive.

On to `COc1ccc(CNC(=O)CSCc2ccc(C)cc2)c(OC)c1`, for which the “activity change, negative = inhibition” value is inactive: -7.4%. Same read-out and setting: the same measure for `COc1ccccc1NC(=O)c1cc2c(n(-c3ccc(C)cc3)c1=O)CC(C)(C)CC2=O`: inactive: 6.98%.
